Results on 53 compounds are retold here after ChEMBL document CHEMBL4888484, “Replenishing the malaria drug discovery pipeline: Screening and hit evaluation of the MMV Hit Generation Library 1 (HGL1) against asexual blood stage Plasmodium falciparum ,using a nano luciferase reporter read-out” (2022).

Structures are written as SMILES. Out of some 150,000 compounds screened, about 540 (0.36%) showed an effect of 50% or more. The list shows a part of the results.

This assay concerns Plasmodium falciparum. Nature of the assay: Primary screen in NF54 nanoGlo assay, in single point, at 2uM, 72h; a lower Z score goes with more inhibition. Format: functional, Erythrocyte. Particulars: timepoint 72 hour.
A word on the % Inhibition: it is the change of the read-out against control, counted positive when it falls. For `O=C(N[C@@H](CO)C(=O)Nc1nc(-c2ccccc2)cs1)Oc1ccccc1`, the “% Inhibition” value is on record as -21% and the Z score came out at 2.48.

As for `c1ccc(-c2noc(CN3C[C@H]4CC[C@H]3C4)n2)nc1`, the “% Inhibition” value is -19% and the Z score came out at 1.65.

`Cc1cc(C)c(S(=O)(=O)N(C(=O)Oc2ccccc2)c2ccc(OC(=O)Oc3ccccc3)cc2)c(C)c1`: the “% Inhibition” value is recorded as -3% and the Z score stood at 0.35.

In the case of `Cc1ccc(CC(=O)N2C[C@H]3CC[C@@H](C2)N(C)C3)cc1`, the “% Inhibition” value is given as -22% and the Z score is reported as 2.4.

`CNc1ncc(CN(C)c2cc([C@H]3CCOC3)ncn2)cn1`: the “% Inhibition” value was -15% and the Z score was found to be 2.76.

As to `CCN(CC)C(=O)Oc1ccc2c(ccn2Cc2ccc(F)cc2)c1NC(=O)c1cc(Cl)cc(Cl)c1`, the “% Inhibition” value is recorded as 3% and the Z score is -0.24.

For `Cc1ccccc1CC(=O)N1CCN(Cc2ncc[nH]2)C[C@H](O)C1`, the “% Inhibition” value is reported as -3% and the Z score turned out to be 0.58.

`O=C(Cc1ccccc1)N1C[C@@H]2CC[C@H]1CN(Cc1ccncc1)C2`: the “% Inhibition” value was 12% and the Z score was -1.74.

On to `COC(=O)c1cc(OC)cc2[nH]c(=O)oc12`, for which the “% Inhibition” value is 32% and the Z score is -4.13.

Regarding `O=C(Cc1ccc(O)c(F)c1)N1C[C@H]2c3ccccc3OC[C@@]2(C(=O)O)C1`, the “% Inhibition” value is -2% and the Z score came out at 0.24.

Regarding `N#Cc1ccc(S(=O)(=O)N2C3CCC2c2cncnc2C3)cc1` (stereo unspecified), the “% Inhibition” value is recorded as -16% and the Z score was determined as 2.1.

Turning to `CCC[C@H](C)C1(CC)C(=O)NC(=Nc2ccccc2)NC1=O` (stereo partly specified), the “% Inhibition” value was -28% and the Z score is recorded as 3.28.

Turning to `CCC(=O)Nc1ccc(C)c(NC(=O)C2(c3ccccc3)CCN(C)CC2)c1`, the “% Inhibition” value was -9% and the Z score was 1.09.

As to `O=C1CCCN1c1cccc(N[C@H]2CN3CCC2CC3)c1`, the “% Inhibition” value was -5% and the Z score is on record as 0.84.

For `CN(CCc1cc(Cl)cc(Cl)c1)CC1CC(O)C1` (stereo unspecified), the “% Inhibition” value came out at 6% and the Z score is recorded as -0.6.

As to `CC(C)C(NCc1cn2cccnc2n1)C(O)c1ccccc1` (stereo unspecified), the “% Inhibition” value is recorded as -3% and the Z score was 0.45.

On to `O=C(Cc1ccc2c(c1)OCO2)N1CCN(CC2CC2)[C@@H]2CS(=O)(=O)C[C@@H]21`, for which the “% Inhibition” value is listed as -3% and the Z score is 0.7.

As for `C[C@@H]1N=C(c2ccccc2)c2cc(Cl)ccc2N(CC(=O)Nc2cccc(C(F)(F)F)c2)C1=O`, the “% Inhibition” value turned out to be 31% and the Z score was -4.17.

Consider `CCc1ccc(NCC(=O)N2CCC3(CC2)OCCO3)cc1F`, for which the “% Inhibition” value was -6% and the Z score is 1.09.

As to `O=c1cccc2n1CC1CC2CN(c2nc(NCC3CCCO3)nc(N3CCCC3)n2)C1` (stereo unspecified), the “% Inhibition” value worked out at 5% and the Z score is on record as -0.68.

As to `O=S(=O)(c1cccs1)N1C[C@@H]2CC[C@H]1CN(Cc1ccccn1)C2`, the “% Inhibition” value is listed as -11% and the Z score was determined as 1.11.

Take `CCCCS(CCCC)=C1C(=O)NC(=O)N(CCc2ccc(F)cc2)C1=O`: the “% Inhibition” value was -8% and the Z score turned out to be 0.88.

With `Clc1cccc(CCN[C@H]2CCOC3(CCOCC3)C2)c1`, the “% Inhibition” value is recorded as 34% and the Z score is recorded as -1.26.

For the compound `O=C1CCC2CN(Cc3ccccc3)CC2C1` (stereo unspecified), the “% Inhibition” value is listed as -6% and the Z score stood at 1.18.

Regarding `COc1cccc(CN2C[C@H]3CN(C(=O)C(C)C)C[C@@]3(CO)C2)n1`, the “% Inhibition” value is given as -10% and the Z score was determined as 1.3.

As to `CC[C@H]1CN(C)CCN1C(=O)Cc1ccc2[nH]c(=O)[nH]c2c1`, the “% Inhibition” value amounted to 0% and the Z score is recorded as 0.07.

For `Cc1cccc(CNC(=O)c2cn(CCN3CCNCC3)nn2)c1C`, the “% Inhibition” value is 2% and the Z score is -0.45.

On to `Cc1c[nH]c(CN(C)[C@@H](C)Cn2nc(C)cc2C)n1`, for which the “% Inhibition” value is on record as -1% and the Z score is 0.2.

Regarding `O=c1[nH]ncn1C1CCN(C[C@H](O)c2ccc(F)cc2Cl)CC1`, the “% Inhibition” value is listed as -7% and the Z score is listed as 1.16.

With `Cc1ccc2c(c1)CCCN2C(=O)CN1CC=C(c2cnn(C)c2)CC1`, the “% Inhibition” value was determined as 55% and the Z score is on record as -3.45.

Consider `C[C@@H](Cc1ccc(Cl)cc1)N(C)Cc1ccn(C)n1`, for which the “% Inhibition” value is listed as -6% and the Z score is recorded as 0.57.

Consider `N#Cc1cccc(CN2C[C@H]3CCC[C@@H](C3)C2)c1`, for which the “% Inhibition” value is recorded as -8% and the Z score was 1.6.

Consider `CCCNC(=O)CN1C[C@H]1C(=O)NCCC` (stereo partly specified), for which the “% Inhibition” value is given as -13% and the Z score was found to be 1.38.

Take `CCOc1ccc(N2C(=O)NC(=O)[C@@]3(Cc4c(ccc5ccccc45)N(C)C3)C2=O)cc1`: the “% Inhibition” value was 14% and the Z score is recorded as -2.22.

Regarding `CCN1CC[C@H]2OCCN(C(=O)c3cnc(COC)nc3N)[C@H]2C1`, the “% Inhibition” value was -1% and the Z score came out at 0.1.

On to `O=C1N=C(O)N(CCc2ccccc2)C(=O)C12Cc1ccccc1N1CCCC12` (stereo unspecified), for which the “% Inhibition” value is -7% and the Z score was determined as 0.62.

For the compound `N=C1c2ccccc2CN1c1cccnc1`, the “% Inhibition” value is -10% and the Z score stood at 1.36.

Turning to `CN1CCC[C@@]2(CCN(Cc3ccc(C(F)(F)F)cn3)C2)C1`, the “% Inhibition” value was 2% and the Z score is on record as -0.25.

For `Cc1nnc(CN(C)CCc2ccc(F)cc2Cl)n1C`, the “% Inhibition” value is -6% and the Z score worked out at 0.77.

Take `CC(Nc1ccc(C#N)c(Cl)c1)C1CCOC1` (stereo unspecified): the “% Inhibition” value was -5% and the Z score is reported as 1.02.

In the case of `O=C(COc1cccc(F)c1)N1C[C@@H]2CC[C@H]1CN(Cc1cscn1)C2`, the “% Inhibition” value is -9% and the Z score was found to be 1.33.

As to `COc1ccccc1Cn1cc(C(=O)NCCC(C)C)c(=O)c(C(=O)NC[C@H]2CCCO2)c1`, the “% Inhibition” value is -2% and the Z score is recorded as 0.39.

In the case of `Cc1cccc(CC(=O)N2CCC3(CC2)OCCO3)c1`, the “% Inhibition” value came out at 9% and the Z score is -1.68.

On to `COc1ccc(-c2cn(C[C@H]3C[C@@H]4CCN3C[C@@H]4C(=O)N3CCOCC3)nn2)cc1`, for which the “% Inhibition” value is given as -6% and the Z score came out at 0.91.

For `O=C1NC(=O)C(CCc2ccccn2)(CCc2ccccn2)C(=O)N1CCC1=CCCCC1`, the “% Inhibition” value is on record as -12% and the Z score came out at 1.35.

As to `CCN(CC)C(=O)Oc1ccc2c(ccn2Cc2cc(Cl)cc(Cl)c2)c1-c1ccc(C)cc1`, the “% Inhibition” value was -11% and the Z score turned out to be 1.96.

As for `Cc1ccc2ncc(CN3CCN4CCOC[C@]4(CO)C3)cc2c1`, the “% Inhibition” value came to 1% and the Z score is -0.12.

`Cc1cc(C)cc(OCCn2c(-c3ccccn3)noc2=O)c1`: the “% Inhibition” value is given as -9% and the Z score is reported as 1.46.

Consider `CC(C)Cc1cc(CN2CCC3(CC2)CNCCO3)no1`, for which the “% Inhibition” value is given as -1% and the Z score was found to be 0.17.

Regarding `CC12CNCC(C)(CN(Cc3ccccc3)C1)C2`, the “% Inhibition” value is -10% and the Z score came out at 1.27.

Regarding `COCCOCC(=O)N1[C@H]2CC[C@@H]1c1cnc(-c3ccc(F)cc3)nc1C2`, the “% Inhibition” value is listed as -3% and the Z score is recorded as 0.49.

For the compound `Cc1ccc2c(CCN=C(N)N3CCOCC3)cn(C)c2c1`, the “% Inhibition” value is -3% and the Z score was determined as 0.61.

Turning to `Cc1ccc(CNc2ncnc3[nH]ncc23)c(-n2cc(Cl)cn2)n1`, the “% Inhibition” value amounted to 12% and the Z score is reported as -2.28.
